According to PubChem BioAssay AID463173 (ICCB-Longwood Screening Facility, Harvard Medical School, 2010):
Out of some 52,000 compounds screened, about 4,300 (8.3%) were called active. Rule as the data show it: active = survival mostly below about 52% (no sharp cut-off); inactive = mostly above about 56%. The list shows a part of the results.

These compounds were tested on DeltatarO mutant (assay: growth inhibition of S. aureus wild type versus tarO mutant, primary screen, teichoic acid synthesis inhibitors, RN4220, OD600 (AID 463173)). Details: OD600, 18 h, active compounds read low, screened at 18.75 µg/mL (by protocol).

| SMILES | survival |
| --- | --- |
| O=C(Cn1c(=O)n(Cc2ccco2)c(=O)c2sc3ccccc3c21)Nc1ccccc1C(F)(F)F | inactive: 78% |
| Cc1ccc(-n2nc(C)c3c(C)c(CCC(=O)NCc4ccccc4Cl)c(C)nc32)cc1 | inactive: 62% |
| CC(=O)NCCNC(=O)c1ccc2c(=O)n(CCc3ccccc3)c(=O)[nH]c2c1 | inactive: 83% |
| COc1ccc(C2=C(C(C)=O)Sc3nnc(-c4ccccc4)n3N2C(C)=O)cc1 | inactive: 87% |
| CC1(C)CC2CC(C)(CN2C(=O)Nc2ccccc2)C1 (stereo not drawn) | inactive: 75% |
| Cc1ccc(Cl)cc1N1CCN(C(=O)c2cn(C)c3ccc(S(=O)(=O)N4CCCCC4)cc3c2=O)CC1 | inactive: 68% |
| CC(C)CNc1cc(NC2CCCCC2)c2c3c(onc13)-c1ccccc1C2=O | inactive: 80% |
| CSc1ccc(CCNC(=O)CCc2c(C)nc3c4cccnc4nn3c2C)cc1 | inactive: 81% |
| CC(C(=O)O)N1CCCCC1 (stereo not drawn) | inactive: 79% |
| O=C(CC1N=C2c3ccccc3N=C(SCc3cccc(F)c3)N2C1=O)NC1CCCCC1 (stereo not drawn) | inactive: 93% |
| CCSc1nc2sc3c(c2c(=O)n1-c1ccc(C)cc1)CCCC3 | active: 0% |
| O=C(NC1CCCCC1)C(c1cccs1)N(Cc1ccco1)C(=O)C1COc2ccccc2O1 (stereo not drawn) | inactive: 96% |
| COc1cccc(CNCc2c(C(=O)O)c(C)n(Cc3ccc(F)cc3Cl)c2C)c1OC | inactive: 72% |
| O=C(Nc1ccc(F)c(F)c1)c1ccc(F)c(S(=O)(=O)N2CCC3(CC2)OCCO3)c1 | inactive: 67% |
| COc1cc(C2CC(=O)N(CC(=O)Nc3ccccc3F)c3ccccc3S2)cc(OC)c1OC (stereo not drawn) | inactive: 74% |
| CCC(C(=O)NCCc1ccc(SC)cc1)n1nc(C)c2c(C)n(-c3ccc(C)cc3)nc2c1=O (stereo not drawn) | inactive: 80% |
| Cc1ccc(CCNC(=O)c2ccc(CSc3nc4ccncc4n3Cc3ccc(F)cc3)cc2)cc1 | inactive: 104% |
| COC(=O)c1sc2ccccc2c1S(=O)(=O)N1CCN(c2ccc(C(C)=O)cc2)CC1 | inactive: 94% |
| Cc1ccc(-n2nc(CO)c(C(=O)NC(C)c3ccccc3)n2)cc1C (stereo not drawn) | active: 41% |
| O=C(Nc1ccc(F)cc1F)c1cc(-c2ccc3c(c2)OCO3)on1 | inactive: 71% |
| COC(=O)c1ccccc1NC(=O)CCc1c(C)nc2cc(-c3ccc(Cl)cc3)nn2c1C | active: 41% |
| CC(=O)c1cc(-c2ccc(F)cc2)n(CCC(=O)NC2CCCCC2)c1C | inactive: 99% |

| SMILES | survival |
| --- | --- |
| Cc1cccc(OCC(=O)Nc2cccc(-c3nc4ccccc4s3)c2)c1 | active: 7% |
| CCOC(=O)c1cc(CC)sc1NC(=O)COc1ccccc1C | inactive: 127% |
| Cc1cc(NC(=O)CN2CCC(O)CC2)nc2c1c(=O)oc1ccccc12 | inactive: 83% |
| COc1ccc(C(=O)NCC(c2ccc3c(c2)OCO3)N2CCN(C)CC2)cc1OC (stereo not drawn) | inactive: 120% |
| CCN1CCN(c2ncnc3c2cnn3-c2ccc(F)cc2)CC1 | inactive: 84% |
| CCn1c(=O)n(CC2CCC(C(=O)NC(C)C)CC2)c(=O)c2sccc21 (stereo not drawn) | inactive: 85% |
| COc1ccc(NC(=O)CSc2c(C(C)C)cnc3c2c(=O)n(C)c(=O)n3C)c(OC)c1 | inactive: 67% |
| COc1ccc2cc3c(N)nn(C(=O)c4ccc(F)cc4Cl)c3nc2c1 | inactive: 66% |
| COC(=O)c1ccc(CSc2nc3ccncc3n2Cc2ccc(F)cc2)cc1 | inactive: 93% |
| COc1ccc(C(=O)Oc2ccc(C3NC(=O)c4c(sc5c4CCN(C)C5)N3)cc2OC)cc1 (stereo not drawn) | inactive: 70% |
| Cc1ccc(Cl)cc1N1CCN(C(=O)c2cc(S(=O)(=O)N3CCCCC3)cn2C)CC1 | inactive: 83% |
| CC1=CC(C)(C)N(CC(=O)c2ccccc2)c2ccc(C)cc21 | inactive: 97% |
| COCC(C)Nc1ncnc2c1cnn2-c1cccc(Cl)c1 (stereo not drawn) | inactive: 102% |
| COc1ccc(CC(=O)Nc2ccc(-c3nc4ccccc4s3)c(C)c2)cc1 | inactive: 69% |
| CC(C)c1nc2sc3c(N4CCCCC4)ncnc3c2c2c1CCCC2 | inactive: 91% |
| COc1ccc(NC(=O)c2ccc3oc(=O)c(S(=O)(=O)c4ccc(F)cc4)cc3c2)c(OC)c1 | inactive: 87% |
| O=C(Nc1ccc(Cl)cc1)C1COc2ccccc2O1 (stereo not drawn) | inactive: 69% |
| CCOc1ccc(-n2c(SCC(=O)c3ccccc3)nc3c([nH]c4ccccc43)c2=O)cc1 | inactive: 131% |
| COc1cc(OC)c(NC(=O)CN(C)S(=O)(=O)c2ccc3c(c2)CCCC(=O)N3)cc1Cl | active: 6% |
| CCc1ccc(C(=O)c2cn(CC(=O)Nc3cccc(C)c3C)c3nc(C)ccc3c2=O)cc1 | inactive: 125% |
| Cc1cc(NC(=O)c2ccco2)cc(-c2nc3cc(Cl)ccc3o2)c1O | inactive: 79% |
| COc1ccc(Cl)cc1NC(=O)CN1C(=O)CSc2ccc(S(=O)(=O)N3CCCC3)cc21 | inactive: 94% |

| SMILES | survival |
| --- | --- |
| Cc1nnc(NC(=O)CC2CC3CCC2C3)s1 (stereo not drawn) | inactive: 59% |
| CCOc1ccc(NC(=O)CC2C(=O)N(c3cccc(C)c3)C(=O)N2CCC2=CCCCC2)cc1 (stereo not drawn) | inactive: 112% |
| CCOc1ccc(NC(=O)CCc2c(C)nc3c(c(C)nn3-c3ccccc3)c2C)cc1 | inactive: 55% |
| CSc1ccc(/C=C/c2nc3ccccc3n2S(=O)(=O)c2ccc(F)c(C)c2)cc1 | inactive: 91% |
| Cc1ccc(S(=O)(=O)n2nc(C)c(S(=O)(=O)N3CCCCC3)c2C)cc1 | inactive: 86% |
| CCc1ccc(CN(Cc2ccco2)C(=O)c2ccc(C)cc2)cc1 | active: 41% |
| CC(=O)Nc1ccccc1-c1nc2ccccc2n(C(C)C(=O)Nc2cccc(C)c2C)c1=O (stereo not drawn) | inactive: 100% |
| O=S(=O)(c1ccc(Cl)cc1)c1nnn2c1nc(NCc1ccccc1)c1sccc12 | inactive: 39% |
| CC(=O)N(Cc1cccnc1)c1nc2cc(C)cc(C)c2s1 | inactive: 74% |
| O=C(Nc1ccccc1)N(Cc1cccs1)c1ccc(Cl)cc1 | inactive: 105% |
| Cc1ccc2ccc3cc(C(=O)Nc4ccc(C)c(F)c4)nc3c2[nH]1 | inactive: 71% |
| CCOC(=O)N1CCN(S(=O)(=O)N2CCCC(C(=O)NCc3ccccc3OC)C2)CC1 (stereo not drawn) | inactive: 81% |
| CC(=O)N1CCCC1c1nc2ccccc2n1Cc1cc(C)ccc1C (stereo not drawn) | inactive: 106% |
| CCOC(=O)c1ccc(CN(Cc2ccc(F)cc2)S(=O)(=O)c2cc(C(=O)Nc3ccccc3CC)ccc2F)cc1 | inactive: 135% |
| COc1ccc(NC(=O)C2CCCN(S(=O)(=O)c3ccc4[nH]c(=O)ccc4c3)C2)cc1OC (stereo not drawn) | inactive: 83% |
| Cc1ccc(CNC(=O)c2cc(Sc3ccc(F)cc3F)nc3ccccc23)cc1 | inactive: 107% |
| Cc1cccc(NC(=O)CSc2nc(C)c(Cc3ccccc3)c(=O)[nH]2)c1C | inactive: 77% |
| COc1ccc(CCNC(=O)C2=C(C)C(=O)OC23CCCCC3)c(OC)c1 | inactive: 76% |
| CN(C)C(=O)CSc1nnc(-c2ccncc2)n1C | inactive: 89% |
| COc1ccc(CNC(=O)CCc2c(C)nn(-c3ccc(N4CCOCC4)nn3)c2C)cc1 | inactive: 123% |
| Cc1ccc(CCNS(=O)(=O)c2ccc3c(c2)CCN3C(=O)CCC(=O)O)cc1 | inactive: 122% |
| CCc1ccc(NC(=O)CCc2c(C)n(C)c3cc(-c4ccccc4C)nn3c2=O)cc1 | inactive: 55% |

| SMILES | survival |
| --- | --- |
| Cc1cccc(N2CCN(C(=O)CCCn3ncn4c(cc5occc54)c3=O)CC2)c1C | inactive: 58% |
| Cn1c(=O)n(C)c2cc(N3CCOCC3)c(NS(=O)(=O)c3ccc(Br)cc3)cc21 | inactive: 74% |
| CCOc1cc(CNCCSc2nnnn2C)cc(Cl)c1OCc1ccc(Cl)cc1 | active: 2% |
| CCC1SC(=NC(=O)c2cccs2)NC1=O (stereo not drawn) | inactive: 84% |
| O=C(NCC(c1cccnc1)N1CCc2ccccc2C1)C(=O)Nc1cccc(Cl)c1 (stereo not drawn) | inactive: 54% |
| COc1ccc(-c2cc(C(=O)NCCc3ccccc3)c3c(-c4ccccc4)[nH]nc3n2)cc1 | inactive: 87% |
| O=C(Cc1ccc(F)cc1)Nc1cccc(-c2nc3cccnc3s2)c1 | inactive: 95% |
| CCc1nn(CC(=O)NCCCN2CCN(C)CC2)c(=O)c2cc3occc3n12 | inactive: 124% |
| COc1ccc(C(=O)c2c(N)c(-c3nc(-c4ccccc4)cs3)c3ccccn23)cc1 | inactive: 62% |
| COC(=O)c1c(NC(=O)COc2ccc(Cl)cc2C)sc2c1CCCCC2 | inactive: 68% |
| COc1ccc(OC)c(NC(=O)CSC2=Nc3ccccc3C3=NC(CCC(=O)NC4CCCCC4)C(=O)N23)c1 (stereo not drawn) | inactive: 67% |
| CSc1cccc(NC(=O)CC(c2ccc(F)cc2)N2Cc3ccccc3C2=O)c1 (stereo not drawn) | inactive: 69% |
| COc1ccc(C)cc1NC(=O)c1oc2ccc(S(=O)(=O)N3CCOCC3)cc2c1C | inactive: 90% |
| O=C(CSc1nnc(-c2ccco2)o1)NC(c1ccccc1)c1ccccc1 | active: 61% |
| CC(=O)N1CCc2c(sc3c2c(=O)n(-c2ccccc2)c(=O)n3Cc2cccc(C(F)(F)F)c2)C1 | inactive: 111% |
| Cc1ccc(/C=C/c2nc3ccccc3n2S(=O)(=O)c2ccc(Br)cc2)cc1 | inactive: 75% |
| COc1ccc(N2CCN(C(=O)CCc3c(C)nc4cc(-c5cccc(F)c5)nn4c3C)CC2)cc1 | inactive: 67% |
| COc1cccc(N=C2SC(C(=O)Nc3cccc(Cl)c3)CC(=O)N2C)c1 (stereo not drawn) | inactive: 46% |
| CCOC(=O)c1cnc2c(ccc3ccccc32)c1Nc1ccc(OC)cc1OC | active: 8% |
| O=C(NC1CCCCC1)N1CCN(c2ccccn2)CC1 | inactive: 94% |
| COc1ccc(CNS(=O)(=O)c2ccc(F)c(C(=O)Nc3c(C)cc(C)cc3C)c2)cc1 | inactive: 85% |
| CCOC(=O)c1cc(-c2ccc(OC)cc2)n(CCC(=O)Nc2cccc(C(C)=O)c2)c1C | inactive: 64% |
